In PubChem BioAssay AID488969 (Vanderbilt High Throughput Screening Facility, 2010):
The full ranking holds about 110,000 compounds; the median of “z-score” is about -0.1, and the highest 2% start at about 2. This is one part of the list. Calls of active or inactive are those of the source.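 The calls were made as follows: active = z-score in the third read window above 3 or below -3; inactive = the rest.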

biological target: Metabotropic glutamate receptor 8 (Rattus norvegicus) (UniProt P70579); assay: rat mGluR8 modulators via GIRK flux, primary screen, cell-based, thallium flux, HTS (AID 488969); settings: HEK293 rat mGluR8, GIRK (G protein-gated inwardly rectifying potassium channel) thallium flux, FluoZin2; at 10 µM; stronger effect = higher value; submaximal glutamate (EC20) added with thallium
UniProt P70579, sequence (P70579 whole entry, looked up): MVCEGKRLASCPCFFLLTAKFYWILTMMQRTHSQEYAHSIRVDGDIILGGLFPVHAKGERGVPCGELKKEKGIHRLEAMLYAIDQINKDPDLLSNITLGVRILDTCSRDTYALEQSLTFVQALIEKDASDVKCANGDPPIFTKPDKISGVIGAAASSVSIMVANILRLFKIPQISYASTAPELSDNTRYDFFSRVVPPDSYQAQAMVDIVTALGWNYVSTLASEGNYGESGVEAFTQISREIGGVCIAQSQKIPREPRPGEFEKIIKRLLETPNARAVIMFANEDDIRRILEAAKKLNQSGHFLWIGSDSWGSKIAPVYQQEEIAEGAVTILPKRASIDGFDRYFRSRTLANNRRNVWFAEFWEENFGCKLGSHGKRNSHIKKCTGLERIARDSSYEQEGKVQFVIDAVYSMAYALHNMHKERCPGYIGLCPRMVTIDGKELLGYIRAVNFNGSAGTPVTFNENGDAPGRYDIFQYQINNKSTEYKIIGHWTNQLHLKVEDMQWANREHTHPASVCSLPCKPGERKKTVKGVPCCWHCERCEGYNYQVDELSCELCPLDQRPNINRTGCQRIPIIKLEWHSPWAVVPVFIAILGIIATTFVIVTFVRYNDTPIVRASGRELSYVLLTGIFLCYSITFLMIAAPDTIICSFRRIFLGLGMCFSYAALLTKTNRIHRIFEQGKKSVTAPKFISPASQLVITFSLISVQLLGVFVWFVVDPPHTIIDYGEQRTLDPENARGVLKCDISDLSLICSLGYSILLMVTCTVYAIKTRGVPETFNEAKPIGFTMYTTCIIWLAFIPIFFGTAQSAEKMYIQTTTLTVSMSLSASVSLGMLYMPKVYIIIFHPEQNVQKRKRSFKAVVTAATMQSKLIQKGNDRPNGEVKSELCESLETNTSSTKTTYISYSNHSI

In order of rising z-score:
1. CCNc1ccc2noc3c2c1C(=O)c1ccccc1-3  -1.71
2. COc1ccc(Br)cc1C(=O)Nc1cccc(-c2nnc(-c3ccco3)o2)c1  -1.55
3. Cc1scc(-c2n[nH]c(=S)n2C(C)c2ccccc2)c1C (centres undefined)  -1.43
4. O=C(CSCCNS(=O)(=O)c1ccccc1)Nc1ccccc1  -1.18
5. CC1CC2(CCCCC2)N2C(=O)C(=O)c3cccc1c32 (centres undefined)  -0.955
6. COc1cc(C2C(C#N)=C(C)NC3=C2C(=O)c2ccccc23)cc(OC)c1OC (centres undefined)  -0.926
7. Cc1cccc(N2CCN(C(=O)CCNC(=O)Cn3ccc4ccccc4c3=O)CC2)c1C  -0.914
8. O=c1c2oc3ccccc3c2ncn1Cc1ccccc1F  -0.88
9. CCOc1cc(C)c(Cl)cc1S(=O)(=O)NCc1ccc2c(c1)OCO2  -0.837
10. Cc1ccc(-n2c(N)c(C(=O)N3CCCCC3)sc2=S)cc1  -0.614
11. COc1ccc(-n2c(Cc3cccn3C)nnc2SCC(=O)Nc2cccc(C)c2C)cc1  -0.553
12. CCOC(=O)Cn1nnnc1CN(Cc1cccs1)Cc1cc2cc(C)ccc2[nH]c1=O  -0.54
13. C=CCNC(=S)Nc1cc(S(=O)(=O)N2CCOCC2)ccc1-n1cncn1  -0.526
14. COCCN(C(=S)Nc1ccccc1C)C(C)c1cccs1 (centres undefined)  -0.521
15. O=C(COC(=O)CCSc1ccccc1Cl)Nc1ccc(F)cc1F  -0.501
16. COc1ccccc1/C=C(/CC(=O)NCc1ccccc1)c1nc2ccccc2s1  -0.481
17. Cc1cccc(CN2CCN(c3ccccn3)CC2)c1  -0.478
18. COc1ccc(/C=C2\SC(N3CCc4ccccc4C3)=NC2=O)cc1OC  -0.444
19. CCOC(=O)c1sc(NC(=O)C2C3C=CC(C3)C2C(=O)O)nc1C (centres undefined)  -0.419
20. Cc1oc2cc(O)ccc2c(=O)c1Oc1ccc2ccccc2c1  -0.419
21. Cc1cccc(C(=O)c2cnc3ccccc3c2-c2ccccc2)c1  -0.418
22. O=C(NCc1ccccc1Cl)c1ccccc1Oc1ccccc1  -0.412
23. CCOC(=O)N1CCC(Nc2c(NCCCN(C)Cc3ccccc3)c(=O)c2=O)CC1  -0.407
24. COC(=O)c1cc(OC)c(OC)cc1NC(=O)CN1CCCCC1  -0.403
25. COc1cc(/C=N/OCC(=O)NC2CCCCC2C)ccc1OCc1ccc(Cl)cc1 (centres undefined)  -0.387
26. CC(=O)OCC1OC(n2ccc(=O)[nH]c2=O)C(O)C1O (centres undefined)  -0.378
27. CCOc1cccc(C(=O)N(Cc2ccco2)C2CCS(=O)(=O)C2)c1 (centres undefined)  -0.365
28. COc1ccc(CNc2oc(COc3ccccc3)nc2C#N)cc1  -0.365
29. CCOc1ccccc1N1CCN(C(=S)Nc2ccc(S(N)(=O)=O)cc2)CC1  -0.356
30. COCCNC(=O)c1ccc(N2CCC3(CC2)OCCO3)c([N+](=O)[O-])c1  -0.355
31. COc1ccc(OCC(=O)N/N=C(\C)c2ccc(-n3ccnc3)cc2)cc1  -0.334
32. COc1cc(NC(=O)Cn2nc(C(F)(F)F)c3c2CCCC3)cc(OC)c1OC  -0.327
33. O=C(c1sc2cc([N+](=O)[O-])ccc2c1Cl)N1CCCCC1  -0.324
34. NC(=O)CSc1nc2ccccc2c(=O)n1Cc1ccco1  -0.321
35. Cc1cc(C)c2nc(NC(=O)c3cccc(S(=O)(=O)N4CCc5ccccc54)c3)sc2c1  -0.315
36. CC(=O)Nc1c(Cl)n(C(C)=O)c2ccccc12  -0.309
37. CN(C)CCN(C(=O)/C=C/c1cccs1)c1nc2ccc(F)cc2s1  -0.305
38. Cc1ccc(S(=O)(=O)C2CCCCC2=O)cc1 (centres undefined)  -0.299
39. Cc1cc2c(C)cc(=O)oc2c2c1NCCC2  -0.295
40. CCN(/C=N/c1sc2c(c1C#N)CCCCC2)CC  -0.292
41. O=c1c2c(n3cnnc3n1-c1ccccc1)-c1ccccc1CC21CCCC1  -0.283
42. O=C(CSc1nnc(-c2ccccc2NC(=O)c2ccccc2)o1)OC1CCCCC1  -0.228
43. COc1ccc(CN(C)CC(=O)Nc2ccc(N3CCOCC3)cc2)cc1OC  -0.224
44. COc1ccc(NS(=O)(=O)c2c(C)[nH]c(=O)[nH]c2=O)c(OC)c1  -0.223
45. Cn1nnnc1SCc1ccc(C(=O)Nc2ccccc2F)cc1  -0.223
46. O=C(CN1C(=O)NC2(CCCCCC2)C1=O)N1CCC(Cc2ccccc2)CC1  -0.214
47. O=C(O)CN1C(=O)SC(Nc2ccc(C(=O)O)cc2)C1=O (centres undefined)  -0.214
48. COc1ccc(Cl)cc1N(CC(=O)Nc1cccc(SC)c1)S(C)(=O)=O  -0.191
49. Cn1c(SCC#N)nnc1-c1ccc2c(c1)OCO2  -0.182
50. CCC(C)Sc1nc2c(cnn2-c2ccc(C)cc2)c(=O)[nH]1 (centres undefined)  -0.177
51. COc1ccc(CCNC(=O)C2CC(c3ccccc3[N+](=O)[O-])=NO2)cc1 (centres undefined)  -0.176
52. CCOc1ccc(S(=O)(=O)Nc2ccc3c(c2)c2c(n3S(=O)(=O)c3ccc(OCC)cc3)CCCC2=O)cc1  -0.175
53. COc1ccc(N2CCN(CCC(N)=O)CC2)cc1  -0.173
54. O=S(=O)(c1ccc(Cl)cc1)N1CCN(c2nc(-c3cccs3)nc3ccccc23)CC1  -0.166
55. COC(=O)C(NC(=O)c1ccc(OC)cc1)(Nc1ncc(S(=O)(=O)c2ccc([N+](=O)[O-])cc2)s1)C(F)(F)F (centres undefined)  -0.144
56. O=C(Cc1ccccc1)N1CCC(O)(c2cccnc2)CC1  -0.136
57. O=C(OCc1nc2ccc(Cl)cc2n1CCO)c1ccc(O)cc1  -0.133
58. CC(=O)Nc1nc2n(n1)C(c1ccc(Cl)cc1)C=C(C)N2 (centres undefined)  -0.129
59. COc1ccc(C2N(c3cccc(Cl)c3)C(=O)C3CCCN32)cc1 (centres undefined)  -0.123
60. Cc1nc([N+](=O)[O-])c(Sc2nc3ccc([N+](=O)[O-])cc3[nH]2)n1Cc1ccccc1  -0.115
61. COC(C(=O)Nc1ccc(S(=O)(=O)Nc2cccc3ccccc23)cc1)c1ccccc1 (centres undefined)  -0.115
62. CC(C)(CC(=O)O)Cc1nc(-c2ccc(Cl)cc2)no1  -0.109
63. CCOc1ccccc1N1CN(CC)CNC1=S  -0.107
64. COc1cc(NC(=O)Cn2nc(Cc3cccnc3)c3ccccc3c2=O)cc(OC)c1OC  -0.0982
65. CCOC(=O)C1=C(N)OC2=C(C(=O)CC(C)(C)C2)C1c1cccnc1 (centres undefined)  -0.0823
66. Cc1cccc(C(=O)Nc2ccc(C)c(OC(=O)c3cccc(C)c3)c2)c1  -0.0742
67. CCSc1nnc2c(n1)OC(c1ccc(C(=O)O)cc1)N(C(C)=O)c1ccccc1-2 (centres undefined)  -0.0637
68. Cc1ccc(C)c(N2CCN(C(=O)Cc3cn(C)c4ccccc34)CC2)c1  -0.0579
69. Cc1cc(Cl)c(OCCN2C(=O)NC(C)(C)C2=O)c(Br)c1  -0.0442
70. Cn1nnnc1SCC(=O)Nc1nc(-c2ccccc2)c(-c2ccccc2)o1  -0.0372
71. O=C(O)C=C1CCN(c2ncc(C(F)(F)F)cc2Cl)CC1  -0.0252
72. CC12CN3CC(C)(CN(C1)C3c1ccc(Cl)cc1Cl)C2O (centres undefined)  -0.0223
73. Cc1ccc(C(=O)OCC(=O)c2ccc(Cl)s2)s1  -0.00745
74. Cc1cnc(C(=O)Nc2nccs2)cn1  0.00782
75. CCCN(CC1CC1)S(=O)(=O)c1ccc(-n2cnnn2)c(OC)c1  0.0226
76. COCCCNC(=O)C1CC(=O)OC1c1ccc(OC)c(OC)c1 (centres undefined)  0.0285
77. CC(=O)Nc1ccc(NC(=O)CN(C)CCC#N)cc1  0.0576
78. O=C(Nc1ccc(Br)cc1)c1ccc(CSC2=NCCS2)cc1  0.0719
79. CCN(CC)CCCn1c(=S)[nH]c2ccc(Cl)cc2c1=O  0.0726
80. COc1ccc(CCn2c3c(c(=O)[nH]c2=O)C(NC(=O)c2cccs2)(C(F)(F)F)C(=O)N3)cc1OC (centres undefined)  0.073
81. CN1CCN(C(=O)c2cc(-c3ccccc3)on2)CC1  0.0853
82. CC(=O)Nc1ccc(S(=O)(=O)N2CCC(c3nc4ccccc4[nH]3)CC2)cc1  0.0879
83. Cn1c(Br)nc2c1c(=O)n(CC(O)COc1ccccc1)c(=O)n2C (centres undefined)  0.109
84. Cc1ccnc(NC(=O)c2ccccc2[N+](=O)[O-])c1  0.116
85. CCC(C)N(C(=O)C(F)(F)F)C(C(=O)NC1CCCCC1)c1ccncc1 (centres undefined)  0.117
86. O=C(Cc1cccs1)NCc1ccc(F)cc1  0.123
87. COCCn1c(=NC(=O)CSC(C)=O)sc2cc(F)ccc21  0.157
88. COc1ccc(N(C)S(=O)(=O)c2cccc(C(=O)Nc3ccc(OC)nc3)c2)cc1  0.177
89. Cc1ccc(SCCC(=O)Nc2cccc(N(C)S(C)(=O)=O)c2)cc1  0.206
90. O=C(Nc1nnc(-c2ccccn2)o1)c1cccc(Br)c1  0.334
91. O=C(c1ccccc1NS(=O)(=O)c1cccc(C(F)(F)F)c1)N1CCc2ccccc21  0.396
92. CCSc1nnc(NC(=O)Cc2ccc(OC)c(OC)c2)s1  0.396
93. c1ccc2c(c1)CCCn1nnnc1-2  0.404
94. CCCC1Cc2nc(N3CCCCC3)c(C#N)cc2CO1 (centres undefined)  0.443
95. Cc1cc(C(=O)Nc2c(C)n(C)n(-c3ccccc3)c2=O)c2ccccc2n1  0.444
96. CCOC(=O)CSc1nc(N)c(C#N)c(-c2ccc(OC)cc2)c1C#N  0.504
97. Cc1ccc(N2C(=O)CC(NCc3ccc4c(c3)OCO4)C2=O)cc1Cl (centres undefined)  0.555
98. CC1(C)CC(=O)c2cc(C(=O)Nn3cnnc3)c(=O)n(-c3ccccc3)c2C1  0.645
99. O=C(COc1ccc(Cl)cc1)N(Cc1ccccc1)c1ccccn1  0.67
100. Cc1ccc2c(c1)N(CCC(=O)NCC1COc3ccccc3O1)C(=O)CO2 (centres undefined)  0.681
101. O=C(O)C1C2C=CC(C2)C1C(=O)NCCc1ccncc1 (centres undefined)  0.718
102. Cc1noc(NS(=O)(=O)c2ccc(NC(=O)CSc3nc4c(cc3C#N)CCC4)cc2)c1C  0.813
103. COc1ccc(CNC(=O)C2COc3ccccc3O2)c(OC)c1 (centres undefined)  0.821
104. COc1ccccc1C(=O)N1CCCC(c2nc(-c3cc(OC)c(OC)c(OC)c3)no2)C1 (centres undefined)  1.06
105. Cc1ccc2c(CN3CCN(Cc4ccc5c(c4)OCO5)CC3)cc(=O)oc2c1C  1.26
106. Cc1onc(-c2ccccc2)c1C(=O)NNC(=S)NC(=O)c1ccc(Br)cc1  1.67

`FC(F)(F)Oc1ccc(NC(=S)NCc2ccccc2)cc1` was tested, and the z-score was active: 3.23.
`COc1cccc(C(=O)Nc2nc(-c3ccccc3)c(-c3ccccc3)o2)c1` was tested, and the z-score was active: 7.83.
With `CC(=O)c1c(C)[nH]c(C(=O)CSc2ncnc3sc(-c4ccccc4)cc23)c1C` the z-score was active: 5.38.
